Holding throughout (assay): protein-binding microarray (PBM)
Common to all, as to conditions: PBM: ~300 nM protein, 6 mM HEPES pH 7.8, 80 mM KCl, 0.5 mM EDTA, 0.5 mM EGTA, 6% glycerol, 35 ng/ul poly-dIdC, 1% milk, 1 h, room temperature; Ap Aiptasia and Nv Nematostella (sea anemones) / Co Capsaspora / Aq Amphimedon (sponge) / Dm Drosophila / Hu human; RHD is the Rel homology domain; high values mean tight binding; most listed sequences are background and not binding sites; double strand, one strand shown

Test [1] concerns the target T1, GST-Ap-NF-kB RHD (UniProt A0A913YAJ5).
T1 sequence: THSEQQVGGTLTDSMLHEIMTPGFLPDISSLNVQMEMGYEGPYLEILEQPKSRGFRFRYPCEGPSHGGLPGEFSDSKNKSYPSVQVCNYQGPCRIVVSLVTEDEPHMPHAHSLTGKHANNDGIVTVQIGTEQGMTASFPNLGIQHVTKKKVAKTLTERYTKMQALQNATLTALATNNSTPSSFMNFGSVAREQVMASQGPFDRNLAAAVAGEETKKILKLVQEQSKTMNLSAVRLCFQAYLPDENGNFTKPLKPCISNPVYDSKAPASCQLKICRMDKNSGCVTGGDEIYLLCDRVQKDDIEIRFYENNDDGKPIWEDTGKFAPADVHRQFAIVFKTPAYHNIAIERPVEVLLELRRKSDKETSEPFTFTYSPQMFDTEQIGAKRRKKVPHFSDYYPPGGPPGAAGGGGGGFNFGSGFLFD

Test [2] deals with T2, GST-Nv-NF-kB (Cys allele) (UniProt E5G601).
T2 sequence: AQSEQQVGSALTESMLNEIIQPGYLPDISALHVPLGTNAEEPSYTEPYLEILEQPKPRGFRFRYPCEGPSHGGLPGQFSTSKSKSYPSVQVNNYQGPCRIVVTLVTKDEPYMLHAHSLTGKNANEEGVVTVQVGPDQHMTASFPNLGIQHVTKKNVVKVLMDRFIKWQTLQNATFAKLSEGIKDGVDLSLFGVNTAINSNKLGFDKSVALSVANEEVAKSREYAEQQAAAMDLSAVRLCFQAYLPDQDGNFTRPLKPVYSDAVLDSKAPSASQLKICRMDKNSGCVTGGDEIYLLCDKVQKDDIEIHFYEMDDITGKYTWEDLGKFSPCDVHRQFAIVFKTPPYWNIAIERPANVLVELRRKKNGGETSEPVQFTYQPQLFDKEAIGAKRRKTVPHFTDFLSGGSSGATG

The target in test [3] is T3, GST-Co-NF-kB (UniProt F1ARL5).
T3 sequence: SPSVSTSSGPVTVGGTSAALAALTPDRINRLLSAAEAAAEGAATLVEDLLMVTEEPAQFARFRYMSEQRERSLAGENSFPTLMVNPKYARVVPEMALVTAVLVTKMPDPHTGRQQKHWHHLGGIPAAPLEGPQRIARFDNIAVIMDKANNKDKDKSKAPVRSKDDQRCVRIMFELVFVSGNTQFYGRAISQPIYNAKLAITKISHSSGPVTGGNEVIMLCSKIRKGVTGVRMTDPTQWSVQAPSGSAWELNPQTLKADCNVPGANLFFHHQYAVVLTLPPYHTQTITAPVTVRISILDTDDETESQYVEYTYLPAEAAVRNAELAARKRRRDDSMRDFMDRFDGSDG

In test [4] the target is T4, GST-Dm-Relish (UniProt Q94527).
T4 sequence: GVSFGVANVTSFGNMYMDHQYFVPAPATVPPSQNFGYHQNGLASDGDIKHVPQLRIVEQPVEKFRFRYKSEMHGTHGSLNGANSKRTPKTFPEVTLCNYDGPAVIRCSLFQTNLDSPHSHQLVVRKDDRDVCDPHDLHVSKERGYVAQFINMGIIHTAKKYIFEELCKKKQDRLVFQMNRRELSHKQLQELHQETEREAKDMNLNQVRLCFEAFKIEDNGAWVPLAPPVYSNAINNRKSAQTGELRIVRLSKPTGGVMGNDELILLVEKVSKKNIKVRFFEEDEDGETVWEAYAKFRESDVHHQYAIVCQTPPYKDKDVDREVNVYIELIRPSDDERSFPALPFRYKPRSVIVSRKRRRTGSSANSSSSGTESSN

For test [5], the target named is T5, GST-Aq-NF-kB (UniProt A9Y5G7).
T5 sequence: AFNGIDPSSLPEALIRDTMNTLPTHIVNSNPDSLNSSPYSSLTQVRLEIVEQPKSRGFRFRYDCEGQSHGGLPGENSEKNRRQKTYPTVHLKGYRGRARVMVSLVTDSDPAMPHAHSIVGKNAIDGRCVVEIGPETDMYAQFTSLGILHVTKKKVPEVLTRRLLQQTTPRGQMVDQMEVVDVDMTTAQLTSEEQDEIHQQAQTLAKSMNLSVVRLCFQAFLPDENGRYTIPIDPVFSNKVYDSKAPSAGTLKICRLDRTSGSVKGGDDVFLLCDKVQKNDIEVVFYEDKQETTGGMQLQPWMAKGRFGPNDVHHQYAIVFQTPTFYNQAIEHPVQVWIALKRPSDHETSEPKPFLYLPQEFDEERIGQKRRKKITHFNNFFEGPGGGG

The list shows a part of the results, in another mix than the full data. The list includes weakly bound sequences.

As to “CCGATTAACATCAGTAATACTATTGATGTTAATCGGGTCTTGATTCGCTTGACGCTGCTG”, the binding signal in test [1] was -0.672 z-score; in test [2], -0.0715 z-score; in test [3], 0.0457 z-score; in test [4] it was -0.0364 z-score; in test [5], -0.216 z-score.

For the sequence “CCGATTAACATCACTTTATAATCTGATGTTAATCGGGTCTTGATTCGCTTGACGCTGCTG”, the binding signal in test [1] was -0.663 z-score; in test [2], -0.404 z-score; in test [3], 0.239 z-score; in test [4], -0.0775 z-score; in test [5] it was -0.33 z-score.

As to “CCGATTAACATCATCCGCGAGCCTGATGTTAATCGGGTCTTGATTCGCTTGACGCTGCTG”, the binding signal is -0.0778 z-score in test [1]; -0.145 z-score in test [2]; -0.68 z-score in test [3]; -0.792 z-score in test [4]; -0.425 z-score in test [5].

Take “CCGATTAACATCAGGACGTTCCATGATGTTAATCGGGTCTTGATTCGCTTGACGCTGCTG”: the binding signal in test [1] was -0.303 z-score; in test [2], -0.0881 z-score; in test [3], -1.42 z-score; in test [4], 0.77 z-score; in test [5], 0.203 z-score.

“CCGATTAACATCATTATAACTTATGATGTTAATCGGGTCTTGATTCGCTTGACGCTGCTG”: the binding signal in test [1] is -0.577 z-score; in test [2], -0.0812 z-score; in test [3] it was -0.332 z-score; in test [4], -0.425 z-score; in test [5], -0.118 z-score.

As to “CCGATTAACATCAGTGTCCTGCATGATGTTAATCGGGTCTTGATTCGCTTGACGCTGCTG”, the binding signal in test [1] is 0.392 z-score; in test [2], -0.0101 z-score; in test [3], -0.611 z-score; in test [4], -0.495 z-score; in test [5], -0.372 z-score.

For the sequence “CCGATTAACATCAAGTCAACGGGTGATGTTAATCGGGTCTTGATTCGCTTGACGCTGCTG”, the binding signal in test [1] stood at 0.338 z-score; in test [2], 0.219 z-score; in test [3], 0.796 z-score; in test [4], 0.721 z-score; in test [5], 0.411 z-score.

Regarding “CCGATTAACATCATACCGGGTCGTGATGTTAATCGGGTCTTGATTCGCTTGACGCTGCTG”, the binding signal was 0.402 z-score in test [1]; -0.00585 z-score in test [2]; -0.539 z-score in test [3]; -0.395 z-score in test [4]; 0.0659 z-score in test [5].

Regarding “CCGATTAACATCACGTAACAATATGATGTTAATCGGGTCTTGATTCGCTTGACGCTGCTG”, the binding signal was 0.0576 z-score in test [1]; -0.0158 z-score in test [2]; -0.0709 z-score in test [3]; 0.0688 z-score in test [4]; -0.258 z-score in test [5].

In the case of “CCGATTAACATCAAGCTTACTCATGATGTTAATCGGGTCTTGATTCGCTTGACGCTGCTG”, the binding signal in test [1] was -0.558 z-score; in test [2] it was -0.061 z-score; in test [3], -0.635 z-score; in test [4], -0.685 z-score; in test [5], -0.518 z-score.

Consider “CCGATTAACATCAAAGCCACGAGTGATGTTAATCGGGTCTTGATTCGCTTGACGCTGCTG”, for which the binding signal in test [1] is -0.21 z-score; in test [2] it was -0.735 z-score; in test [3] it was -0.469 z-score; in test [4], -0.28 z-score; in test [5] it was -0.527 z-score.

For “CCGATTAACATCAGAGAAACCAATGATGTTAATCGGGTCTTGATTCGCTTGACGCTGCTG”, the binding signal was -0.0342 z-score in test [1]; -0.154 z-score in test [2]; -0.0331 z-score in test [3]; -0.492 z-score in test [4]; -0.225 z-score in test [5].

For the sequence “CCGATTAACATCACTAGGTCGCCTGATGTTAATCGGGTCTTGATTCGCTTGACGCTGCTG”, the binding signal in test [1] is -0.324 z-score; in test [2] it was -0.322 z-score; in test [3], 0.000351 z-score; in test [4], -0.57 z-score; in test [5], -0.512 z-score.

Consider “CCGATTAACATCATTAGCCCTTCTGATGTTAATCGGGTCTTGATTCGCTTGACGCTGCTG”, for which the binding signal in test [1] is 0.0667 z-score; in test [2] it was -0.373 z-score; in test [3], 0.00102 z-score; in test [4], -0.961 z-score; in test [5] it was -0.231 z-score.

The record behind these values is paper PMC5700166.
